This passage reports GI50 and TGI results from PubChem BioAssay (NCI).

The test system of this assay is NCI-H322M lung. Kind of assay: DTP human tumour cell line panel, 48 h.

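Dose response: 5 concentrations. Exposure: 48 h. Format: 96-well plates. Endpoint: linear interpolation; highest concentration if not reached. GI50 marks 50% less growth. TGI marks complete inhibition of growth.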 A value given as a limit tells only on which side of the number the result lay.

With `COc1ccc(-c2ccnc(SCc3cc4cc(OC)ccc4[nH]c3=O)n2)cc1`, the GI50 was 43.7 µM and the TGI was > 100 µM.

Consider `CC(=O)Oc1ccccc1C(=O)[Se]CC(=O)Nc1cccc(C(F)(F)F)c1`, for which the GI50 is 2.56 µM and the TGI was 7.75 µM.

The term GI50 denotes the concentration that inhibits growth by half. Usually TGI stands for the concentration at which net growth stops. A high value points to lower sensitivity of the cells.
